This note sets out measurements from PubChem BioAssay (NCI).

Each structure is given as a SMILES string.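 Assay format: 96-well plates, 48-hour exposure. GI50 = concentration required for 50% inhibition of growth. TGI: total growth inhibition.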

For this test, the system named is NCI-H322M lung. Nature of the test: NCI-60 cell line screen, 48 h.
Turning to `COc1cc(/C=C2\C[C@H]3[C@@H]4CC=C5C[C@@H](OC(C)=O)CC[C@]5(C)[C@H]4CC[C@]3(C)[C@H]2OC(C)=O)ccc1OCCCn1ccnc1`, the GI50 is 9.76 µM and the TGI turned out to be 20.6 µM. Taken in the same sequence, the figures for `C=C1C(=O)O[C@H]2[C@H]1CC/C(COC(=O)NCCc1c[nH]c3ccccc13)=C\CC[C@@]1(C)O[C@@H]21` were 6.39 µM and 19.4 µM. In turn, `OC1OC(c2ccc[nH]2)C(F)(F)C(F)(F)C1(F)F` (centres undefined) registered a TGI greater than 100 µM. Compound `CCC(C)C(NC(=O)C(CCCCN)NC(=O)C(NC(=O)C(CCC(N)=O)NC(=O)C(CCCNC(=N)N)NC(C)=O)C(C)CC)C(=O)NC(Cc1c[nH]c2ccccc12)C(=O)NC(Cc1ccccc1)C(=O)NC(CCC(N)=O)C(=O)NC(CC(N)=O)C(=O)NC(CCCNC(=N)N)C(=O)NC(CCCNC(=N)N)C(=O)NC(CCSC)C(=O)NC(CCCCN)C(=O)NC(Cc1c[nH]c2ccccc12)C(=O)NC(CCCCN)C(=O)NC(CCCCN)C(N)=O` (centres undefined) had a TGI greater than 50 µM. On to `O=C1CN2CCC1C/C2=C\c1ccnc2c(Cl)cccc12` (centres undefined), for which the GI50 is greater than 100 µM and the TGI was greater than 100 µM. For `CCCN(CCC)C(=S)N/N=C/c1cccc(C)n1`, the TGI came to 10.4 µM.

On to `Cc1ccc2nc(CN3CCCCC3)cc(=O)n2c1`, for which the TGI was greater than 100 µM.

With `COc1ccc(C(=O)O)c2c(=O)c3ccccc3[nH]c12`, the TGI was greater than 100 µM. On the same count and under the same terms, as for `CC1(C)C[C@H]2C3=CC[C@@H]4[C@@]5(C)CC[C@H](O)C(C)(C)[C@@H]5CC[C@@]4(C)[C@]3(C)C[C@@H](O)[C@@]23C[C@@H]1OC3=O`, the figure is greater than 100 µM. Turning to `CN1CCN(Cc2ccc(NC(=O)c3[nH]ncc3Nc3ccnc4ccsc34)cc2)CC1`, the GI50 is 2.53 µM and the TGI is 12.8 µM.

On to `S=C(NCCCCCCNC(=S)Nc1c2ccccc2nc2ccccc12)Nc1c2ccccc2nc2ccccc12`, for which the TGI was greater than 100 µM. Compound `OCC1OC(O)C(N=Cc2ccc3c(c2)OCO3)C(O)C1O` (centres undefined) yielded a TGI greater than 100 µM. The compound `O=C(CCc1ccc(O)c(O)c1)c1ccc(O)c(O)c1O` registered a TGI greater than 100 µM.

In turn, `CC1=CC[C@@]2(C)[C@@H]([C@@H]1C)[C@H]1CC[C@@H]3[C@@]4(C)CC[C@H](O)C(C)(C)[C@@H]4CC[C@@]3(C)[C@]1(C)C[C@@H]2O` had a TGI greater than 100 µM. The same measure, in the same setting: as for `N=C(N)C(N=Nc1ccccc1)C(=N)N` (centres undefined), the figure is greater than 100 µM. Turning to `CC1(C)OC(=O)C=C(O)O1.CC1(C)OC(=O)C=C(O)O1.CCO.Oc1ccc2c(c1)CCC2.[Ti]`, the GI50 is 60.1 µM and the TGI is greater than 100 µM. Regarding `CO[C@@]12C[C@@H](CNC(=O)c3cc(Br)c[nH]3)O[C@@H]1NC(=O)N2`, the TGI was greater than 100 µM. Still for that read-out and setting: under `CNC(=O)C(C)NC(=O)C(Cc1ccccc1)NC(=O)OC(C)(C)C` (centres undefined) stands greater than 100 µM. `CC(=O)Oc1cc2c(=O)oc3c(OC(C)=O)c(OC(C)=O)c(OC(C)=O)c4c(=O)oc(c1OC(C)=O)c2c34`: the TGI is greater than 100 µM. As to `O=C1OC(c2ccccc2)(c2ccccc2)CC1CN1CCOCC1` (centres undefined), the TGI was greater than 100 µM. Take `COc1ccc(OC)c2sc(N3C(=O)/C(=C/c4ccccc4S)N=C3c3ccccc3)nc12`: the TGI was greater than 100 µM. Still for that read-out and setting: as for `Cc1c(C(=O)Nc2ccc(Cl)c(C(F)(F)F)c2)oc2cc(O)ccc2/c1=N\NC(N)=S`, the figure is greater than 100 µM. For the compound `O=C(Nc1cccc(-c2nc3ccccc3[nH]2)c1)c1cccc(NC(=O)c2ccco2)c1`, the GI50 was 2.91 µM and the TGI turned out to be 8.13 µM. For `N#C/C(=C\c1ccc(Cl)cc1)n1nnc2cc(F)c(F)cc21` the same measures were 1.87 µM and 4.59 µM.

Compound `c1cc2[se][se]c3c4cccc5[se][se]c(c(c1)c23)c54` returned a TGI greater than 100 µM. On the same count and under the same terms, under `OC1C=C2C3CN(Cc4cc5c(cc43)OCO5)[C@H]2C[C@@H]1O` (some centres undefined) stands 51.5 µM; under `CCOC(=O)C(NC(=O)NCc1ccc(F)cc1)C(F)(F)F` (centres undefined), greater than 100 µM; under `O=C(O)C(Cc1ccccc1)N1C(=O)c2ccccc2C1=O` (centres undefined), greater than 100 µM. Still for that read-out and setting: as for `C=CCN1C(=O)N/C(=C\c2ccc(Cl)cc2)C1=O`, the figure is greater than 100 µM. Regarding `COc1cc2c3c(n(CCCn4ccnc4)c(=O)c2cc1OC)-c1ccccc1C3=O`, the GI50 was 0.132 µM and the TGI was determined as 5.02 µM. `O=C(/C=C(\O)C(=O)O)/C=C(\O)c1ccccc1Cl` came in with a TGI greater than 100 µM.

The compound `Cc1c(Cl)c(=O)oc2cc(OCC(=O)c3ccccc3)ccc12` showed a TGI greater than 100 µM. For the compound `O=c1[nH]cnc2c1nnn2[C@@H]1O[C@H](CO)[C@@H](O)[C@H]1O`, the GI50 is 12.3 µM and the TGI is greater than 100 µM. The compound `C=C1[C@H](OCC(C)C)[C@@H](OCC(C)C)[C@@H](O)C(C)(C)/C=C/[C@H](C)C(=O)[C@@]2(O)C[C@H](C)[C@H](O)[C@@H]2[C@H]1OCC(C)C` returned a TGI greater than 7.5 µM. On the same count and under the same terms, under `CC1N(O)C(c2ccccc2)C(c2ccccc2)=[N+]1[O-]` (centres undefined) stands greater than 100 µM. On to `COc1cc2c(cc1OCCCCCN1CCN(c3cc(=O)oc4c(C)c(OC)ccc34)CC1)N=C[C@@H]1CCCN1C2=O`, for which the GI50 is 0.116 µM and the TGI is 0.516 µM.

Consider `OC(c1ccc(-c2ccccc2)cc1)(c1ccc(-c2ccccc2)cc1)c1ccc(-c2ccccc2)cc1`, for which the TGI is greater than 100 µM. Take `COc1ccc2cc(CNCCCN3CCN(CCCNCc4ccc5cc(OC)ccc5c4)CC3)ccc2c1`: the TGI came to 3.13 µM. With `c1cncc(-c2cc(-c3cc(-c4cccnc4)n[nH]3)[nH]n2)c1`, the TGI is greater than 100 µM.

As to `CCOC(=O)c1ccc(C(O)CC(=O)OC(C)(C)C)[nH]1` (centres undefined), the GI50 was 37.1 µM and the TGI is greater than 100 µM. `c1ccc2c(c1)n1c(N3CCOCC3)[n+]3ccccc3c1c1c3cccc[n+]3c(N3CCOCC3)n21` gave a TGI greater than 100 µM.

Take `Cc1nc2c(s/c(=N\N)n2-c2ccccc2)c(=O)[nH]1`: the TGI is greater than 100 µM. On to `O=C1CC(N2C(=O)/C(=C/C(Cl)=C\c3ccc([N+](=O)[O-])cc3)SC2=S)C(=O)N1c1ccc(Cl)cc1` (centres undefined), for which the GI50 is 3 µM and the TGI is greater than 100 µM. The compound `CCC12CC[C@H](C#N)N3CCc4c(n(c5ccccc45)C(=O)C1)C32` (some centres undefined) returned a TGI of 44 µM. Same read-out and setting: as for `CC1CC(C)C(=O)C(C(=O)CC2CC(=O)NC2=O)C1` (centres undefined), the figure is greater than 100 µM. Still for that read-out and setting: as for `Cc1nc(Cl)c(C)c(Cl)n1`, the figure is greater than 100 µM. Regarding `C[C@@H](Oc1cc(-c2cnn(C3CC4(CCNCC4)C3)c2)cnc1N)c1c(F)ccc(Cl)c1Cl`, the GI50 was 3.13 µM and the TGI came to 10.5 µM. In the case of `COc1cc(/C=C/C(=O)CC(=O)/C=C/c2ccc(OC(=O)CCNC34CC5CC(CC(C5)C3)C4)c(OC)c2)ccc1OC(=O)CCNC12CC3CC(CC(C3)C1)C2`, the GI50 is 15 µM and the TGI came out at 30 µM.

The compound `O=C(O)c1ccccc1C(=O)OCC1CCCN2CCCCC12` (centres undefined) displayed a TGI greater than 100 µM. Compound `C[N+]1(C)C2CCC1CC(OC(=O)C(CO)c1ccccc1)C2` (centres undefined) yielded a TGI greater than 100 µM. The same measure, in the same setting: under `CN1CCC23c4ccccc4NC1C21CCN(C)C3Nc2ccccc21` stands greater than 234 µM. For `Cc1cccc(Oc2ccc(Nc3ncnc4ccc(NC(=O)CN5CCN(C)CC5)cc34)cc2Cl)c1`, the GI50 was 0.67 µM and the TGI came out at 2.11 µM. `CC(=O)/C(=C/N1C(=O)CC(=O)NC1=S)C(=O)Nc1ccccc1C` had a TGI greater than 100 µM.

`CC(C)CC(=O)OC[n+]1cccc(-c2c(COC(=O)NC(C)C)c(COC(=O)NC(C)C)c3n2CCC3)c1` showed a TGI greater than 100 µM. In turn, `CCCOc1ccc(/C=C/C2=[N+](CCO)CCO2)cc1` gave a TGI greater than 100 µM. On to `COCC1OCCN1C` (centres undefined), for which the TGI was greater than 100 µM. `O=C1CS(=O)(=O)C(c2cccc(Oc3ccccc3)c2)N1c1cccc(Cl)c1Cl` (centres undefined) yielded a TGI greater than 100 µM.

Take `Cc1ccc(C2=NN(C)COC2C(F)(F)F)cc1` (centres undefined): the TGI was greater than 100 µM.

`CCOC(=O)CCc1c(C)c2ccc(O)cc2oc1=O` returned a TGI greater than 100 µM.
